Data reported in PubChem BioAssay AID463173 (ICCB-Longwood Screening Facility, Harvard Medical School, 2010).
Out of some 52,000 compounds screened, about 4,300 (8.3%) were called active. No stated cut-off is given here; in the data, active means survival mostly below about 52% (no sharp cut-off); inactive means mostly above about 56%. Some of the results follow.

tested on: DeltatarO mutant; test: S. aureus survival, RN4220 and DeltatarO strains – OD600, teichoic acid synthesis inhibitors, primary screen (AID 463173); conditions: S. aureus RN4220 wild type/DeltatarO growth, OD600, 18 h, hits give low values, screened at 18.75 µg/mL (by protocol)

Compound	survival
Cc1ccc(-c2nn(CC(=O)NC3CCCCC3)c3c2cnc2ccc(F)cc23)cc1C	active: 0%
CCOc1cccc2cc(-c3nnc(Nc4ccc(F)c(Cl)c4)s3)c(=O)oc12	inactive: 71%
Cc1ccc(CSc2nc3cccnc3n2Cc2ccc(C(=O)NC3CCCCC3)cc2)cc1	inactive: 79%
CCCOc1ccc(C2c3c(oc4ccc(F)cc4c3=O)C(=O)N2CCc2ccc(OC)cc2)cc1 (stereo unspecified)	inactive: 78%
O=C(CSc1oc(-c2ccc(F)cc2)nc1S(=O)(=O)c1ccc(Br)cc1)NC1CCCCC1	inactive: 64%
CC(=O)Nc1nonc1-c1nnc(SCC(=O)Nc2ccc(C)c(Cl)c2)n1C	active: 60%
CCOc1ccc2c(c1)c(=O)c(S(=O)(=O)c1ccc(C)cc1)cn2Cc1ccccc1Cl	inactive: 82%
CCN1CCN(c2ncnc3c2cnn3-c2cc(Cl)ccc2C)CC1	inactive: 126%
Cc1cc(C)n(CC(=O)n2c3ccccc3c3ccccc32)n1	inactive: 78%
CC1CCN(S(=O)(=O)c2csc(C(N)=O)c2)CC1	inactive: 85%
COc1ccccc1N1CCN(c2ncnc3c2c(-c2ccccc2)cn3-c2cccc(C)c2)CC1	inactive: 70%
Cc1ccc(-c2nnc3c4ccccc4c(C)nn23)cc1NC(=O)c1cccc(Br)c1	inactive: 99%
COc1ccc(NC(=O)C2CCCN(S(=O)(=O)c3cccc4nonc34)C2)cc1Cl (stereo unspecified)	inactive: 72%
COc1ccccc1NC(=O)CSc1nc2c(oc3ccccc32)c(=O)n1Cc1ccco1	inactive: 59%
O=C(NCc1cccc(Cl)c1)NCc1noc2ccccc12	inactive: 60%
COc1cccc(N2CCN(c3ncnc4c3c(-c3ccccc3)cn4-c3ccc(F)cc3)CC2)c1	inactive: 78%
CCCCN(CC)C(=O)CCCn1c(=O)c2cccn2c2ccccc21	active: 49%
COc1cc(S(=O)(=O)Nc2ccccn2)ccc1Cl	inactive: 108%
CC(Oc1ccc(Cl)cc1Cl)C(=O)N1CCN(C(=O)c2ccco2)CC1 (stereo unspecified)	inactive: 99%
NS(=O)(=O)c1ccccc1	inactive: 97%
COc1ccc(-c2nc(S(=O)(=O)c3ccc(C)cc3)c(N3CCCCC3)o2)cc1	inactive: 54%
Cc1ccc(CNC(=O)CN2C(=O)CC(c3ccc(C)c(C)c3)=Nc3ccccc32)cc1	active: 52%
Cc1cc(N(C(=O)c2cnccn2)C(C(=O)NCc2ccccc2)c2cccs2)ccc1-n1cnnn1 (stereo unspecified)	inactive: 74%

Compound	survival
CCCCOC(=O)c1ccc(Nc2ncnc3c2cnn3-c2cccc(C)c2)cc1	inactive: 74%
Cc1cccc(CN2CCC(CNc3ncnc4onc(-c5ccc(Cl)cc5)c34)CC2)c1	inactive: 98%
Cc1cc(C(C)(C)C)oc1C(=O)N(CC(=O)NC1CCCC1)c1ccc(F)cc1	inactive: 77%
O=C(CNCc1ccccc1F)Nc1ccc(N2CCCC2)cc1	inactive: 102%
COc1ccc(-c2nc(SCC(=O)NCc3ccccc3Cl)n[nH]2)cc1	inactive: 87%
COc1ccc(CNC(=O)CCNS(=O)(=O)c2ccc3c(c2)CCCC(=O)N3)cc1	inactive: 119%
Cc1ccc(Cn2c(CCNC(=O)C(C)C)nc3ccccc32)cc1	inactive: 78%
Cc1ccc(Cl)cc1N(C)C(=O)C1CCCN(c2ncnc3onc(-c4ccc(F)cc4)c23)C1 (stereo unspecified)	inactive: 73%
CC(C)Cn1c(-c2ccc(Cl)cc2)cnc1SCC(=O)N1CCCC1	inactive: 65%
Cc1nn(-c2ccc(N3CCCC3)nn2)c(C)c1CCC(=O)N1CCN(c2ccccc2F)CC1	inactive: 76%
O=C(C1CCC1)N1CCc2cc(S(=O)(=O)NCCc3ccccc3)ccc21	inactive: 107%
O=C(Cn1nc(-c2ccc(Cl)cc2)ccc1=O)NCCc1ccccc1	inactive: 73%
CC(C(=O)Nc1ccccc1)N1C(=O)c2ccccc2C1=O (stereo unspecified)	inactive: 88%
CCC(=O)Nc1cccc(NC(=O)CSc2nnnn2C(C)C)c1	inactive: 94%
CCOC(=O)CCc1c(C)nc2c(c(C)nn2-c2ccc(C)cc2)c1C	inactive: 120%
COc1ccc(C2=Nn3c([n+](C)c4ccccc43)SC2)cc1	active: 0%
COCCNC(=O)c1[nH]c2cc(C)ccc2c1Sc1ccc(Cl)cc1	inactive: 89%
O=C(Nc1cccc(-c2nc3ccccc3o2)c1)c1cccc2c(Cl)cccc12	inactive: 46%
Cc1ccc2nc(COc3cccc(NC(=O)COc4ccc(F)cc4)c3)cc(=O)n2c1	inactive: 63%
Cc1ccc(NC(=O)CCS(=O)(=O)c2ccc3c(c2)oc(=O)n3C)c(Br)c1	inactive: 80%
Cc1cc(C)cc(-n2c(SCC(=O)NC3CCCCC3)nc3c([nH]c4ccccc43)c2=O)c1	inactive: 94%
N#C/C(=C\c1cn(CC(=O)N2CCCC2)c2ccccc12)C(=O)NCc1ccc2c(c1)OCO2	inactive: 66%
Cc1c(Cl)cccc1Nc1nn2c(=O)c3ccc(C(=O)N(C)Cc4ccccc4)cc3nc2s1	inactive: 81%

Compound	survival
COc1ccc(NC(=O)c2cc3c(C)nn(-c4ccccc4)c3s2)c(OC)c1	inactive: 59%
c1cncc(C2=Nc3ccccc3C(c3cccnc3)=NN2)c1	inactive: 102%
O=C(CN1CCN(C2CCCCC2)CC1)N(c1ccccc1)c1ccc(O)cc1	inactive: 96%
O=c1[nH]c(SCc2c(F)cccc2Cl)nc2c1CCCC2	inactive: 56%
COc1ccc(-c2nc(CSCC(=O)N3CCN(c4ccccc4)CC3)c(C)o2)cc1	inactive: 60%
COc1ccc(N2CCN(C(=O)CSCc3ccc(C)cc3)CC2)cc1	inactive: 124%
CC(=O)c1cccc(NS(=O)(=O)c2cccc(S(=O)(=O)c3ccc(Br)cc3)c2)c1	inactive: 55%
O=C(NCc1ccc2c(c1)CCN2C(=O)c1ccncc1)c1ccccc1F	inactive: 117%
COc1cccc(OCCn2c(-c3ccc(Br)cc3)nc3ccccc3c2=O)c1	inactive: 82%
O=C(Nc1ccccc1F)NC1CCN(Cc2nnnn2Cc2ccc(F)cc2)CC1	inactive: 96%
COC(=O)c1ccccc1NC(=O)CCS(=O)(=O)c1nc(-c2ccc3c(c2)OCO3)cc(C(F)(F)F)n1	inactive: 118%
COc1ccccc1CNc1ncnc2c1nnn2C	inactive: 70%
CCOCCCn1c(=N)c(S(=O)(=O)c2ccc(Cl)cc2)cc2c(=O)n3cccc(C)c3nc21	inactive: 65%
O=C(COc1ccccc1)OCc1cc(=O)n2nc(-c3cccs3)sc2n1	inactive: 88%
CC1=CC(c2ccccc2)=Nc2ccc(C)cc2N1	inactive: 102%
Cc1c(Cl)cccc1NC(=O)c1cc2nc(-c3ccc4c(c3)OCO4)cc(C(F)(F)F)n2n1	inactive: 51%
CCc1nn(CC(=O)NC(C)CC)c(=O)c2cc3occc3n12 (stereo unspecified)	inactive: 89%
COc1ccc(CNC(=O)c2cnc3ccc(C)cn3c2=O)cc1	inactive: 109%
Cc1ccccc1NC(=O)c1ccc(N(Cc2ccccc2)S(C)(=O)=O)cc1	inactive: 66%
CC(C)(C)OC(=O)N1CCC(c2c(C(=O)Nc3ccc4c(c3)OCO4)cnn2-c2ccccc2)CC1	inactive: 78%
COc1ccc(-n2nc(C(=O)Nc3cc(C)ccn3)c3c4ccccc4n(C)c3c2=O)cc1Cl	inactive: 88%
CC(=O)Nc1nonc1-c1nnc(SCc2ccccc2)n1C	inactive: 44%
CCOc1ccc(-c2cc(C(=O)NCCc3ccc(OC)c(OC)c3)[nH]n2)cc1	inactive: 77%

Compound	survival
C=CCn1c2ccccc2c2ccccc21	inactive: 104%
CN1CC(=O)N(CC(=O)Nc2ccc(OC(F)(F)F)cc2)c2ccccc2C1=O	inactive: 92%
CCc1ccc(NC(=O)Cn2c(=O)c3cc(Cl)ccc3n3nncc23)cc1	inactive: 80%
Cc1ccccc1CNC(=O)C(=O)NCC(c1cccs1)S(=O)(=O)c1cccs1 (stereo unspecified)	inactive: 115%
C=Cc1ccc(Cn2c(SCC(=O)N3CCN(c4ccc(F)cc4)CC3)nc3ccccc32)cc1	inactive: 83%
O=c1c2oc3ccccc3c2n(Cc2cccc(F)c2)c(=O)n1Cc1ccc2c(c1)OCO2	inactive: 86%
O=C(NCc1ccc(F)cc1)c1ccc2oc(=O)n(Cc3ccccc3)c2c1	active: -2%
COc1cccc(CNC(=O)Cn2c(=O)oc3cc(S(=O)(=O)N4CCCCCC4)ccc32)c1	inactive: 124%
COc1ccccc1NC(=O)C(=O)NCC(c1cccnc1)N1CCc2ccccc2C1 (stereo unspecified)	inactive: 79%
NC(=O)CSc1nnc(C2CC2)n1Cc1ccccc1	inactive: 87%
COC(=O)c1ccc(NC(=O)CCc2c(C)nn(-c3ccc(N4CCCCC4)nn3)c2C)cc1	inactive: 71%
CSc1ccc(CCNC(=O)c2c(C)oc3ncn(C)c(=O)c23)cc1	active: -2%
COc1ccc(N2CCN(C(=O)C3CCN(c4nc5ccc(C)cc5[nH]4)CC3)CC2)cc1	inactive: 89%
COc1ccc(CCN2CCC(CNC(=O)c3cnn(-c4cccc(Cl)c4)c3C3CCN(C(=O)OC(C)(C)C)CC3)CC2)cc1	inactive: 93%
Cc1cccc(Cn2c(Cc3ccccc3)nc3ccccc32)c1	active: 22%
O=C(CN1c2ccccc2S(=O)(=O)c2ccccc21)Nc1cccc(C(F)(F)F)c1	inactive: 69%
O=S(=O)(NC1CCCC1)c1ccc(Br)cc1	inactive: 93%
Cc1ccc(S(=O)(=O)c2cn(CC(=O)Nc3ccc(Cl)cc3)c3ccc(F)cc3c2=O)cc1C	inactive: 53%
S=c1nc[nH]c2c1oc1ccccc12	inactive: 73%
Cc1cccc(NC(=O)/C(C#N)=C/c2ccc(C)o2)c1	inactive: 64%
CCOC(=O)c1ccc(NC(=O)CCc2nc3cccnc3n2Cc2cccs2)cc1	inactive: 58%
COc1cc(C2CC(=O)Nc3c2c(=O)n(C)c2ncnn32)cc(OC)c1OC (stereo unspecified)	inactive: 164%
